Test results taken from the antibiotic and cytotoxicity screens of Wong et al. (2023).
This is one part of the list.

Test system: HSkMC (human skeletal muscle cells)
Assay: cytotoxicity call (relative viability < 0.9)
Conditions: 10 µM

Row | SMILES | cytotoxicity call
1 | CO[C@@H]1CN(C)C(=O)c2cc(NC(=O)Nc3cccc(F)c3)ccc2OC[C@H](C)N(C(=O)Nc2c(C)noc2C)C[C@@H]1C | inactive
2 | CCn1cc(C(=O)N2CCN(C)CC2)c(=O)c2cc(S(=O)(=O)N(C)C)ccc21 | inactive
3 | COc1ccc(CN(C)C[C@@H]2OCCCC[C@H](C)Oc3ccc(NS(=O)(=O)c4ccccc4)cc3C(=O)N([C@H](C)CO)C[C@@H]2C)cc1 | inactive
4 | O=C1c2ccncc2C(=O)N1CO | inactive
5 | CC(=O)OCCNC(=O)c1cccnc1 | inactive
6 | Cc1noc(C)c1S(=O)(=O)N(C)C[C@H]1OCCCC[C@@H](C)Oc2ccc(NC(=O)Nc3ccc(F)cc3)cc2C(=O)N([C@H](C)CO)C[C@@H]1C | inactive
7 | CN(C)[C@H]1CS(=O)(=O)C[C@@H]1N(C)C | inactive
8 | O=C(C[C@@H]1CC[C@@H](NS(=O)(=O)c2ccccc2)[C@@H](CO)O1)NCc1ccncn1 | inactive
9 | Nc1nc(Cl)nc2c1ncn2[C@H]1C[C@H](O)[C@@H](CO)O1 | active
10 | C[C@@H](Oc1cc(-n2cnc3ccc(CN4CCN(C)CC4)cc32)sc1C(N)=O)c1ccccc1C(F)(F)F | active
11 | O/N=C/c1c(Cl)cccc1Cl | inactive
12 | O=C(O)CCC(=O)Nc1ccc(S(=O)(=O)Nc2nccs2)cc1 | inactive
13 | COc1ccc(S(=O)(=O)N(C)C[C@@H]2Oc3c(NS(=O)(=O)c4cn(C)cn4)cccc3C(=O)N([C@@H](C)CO)C[C@@H]2C)cc1 | inactive
14 | CCS(=O)(=O)Nc1ccc2c(c1)C(=O)N(C)C[C@H](OC)[C@H](C)CN(CCC(F)(F)F)[C@H](C)CO2 | inactive
15 | CCC1(C)OC(=O)N(C)C1=O (centres undefined) | inactive
16 | CCCCn1c(N)c(N(CC)C(=O)Cc2ccc(S(=O)(=O)N3CCOCC3)s2)c(=O)[nH]c1=O | inactive
17 | CC(C)NC(=O)Nc1ccc2c(c1)C(=O)N([C@@H](C)CO)C[C@H](C)[C@H](CN(C)C(=O)C1CCCCC1)OCCCC[C@@H](C)O2 | inactive
18 | C[C@@H]1CN([C@@H](C)CO)C(=O)c2cccc(NC(=O)Nc3ccc(C(F)(F)F)cc3)c2O[C@@H]1CN(C)S(C)(=O)=O | inactive
19 | O=C(Nc1cccc2cccnc12)[C@@H]1[C@H](c2cccc(Br)c2)CC(=O)N1C(=O)OCc1ccccc1 | inactive
20 | C[C@H](CO)N1C[C@H](C)[C@H](CN(C)Cc2ccc(Cl)c(Cl)c2)Oc2ccc(NC(=O)Nc3ccccc3)cc2CC1=O | active
21 | C[C@@H]1CCCCO[C@@H](CN(C)S(C)(=O)=O)[C@H](C)CN([C@H](C)CO)C(=O)c2cc(NS(=O)(=O)c3cn(C)cn3)ccc2O1 | inactive
22 | COc1ccc(CN(C)C[C@H]2OCCCC[C@H](C)Oc3ccc(NS(=O)(=O)c4ccc(OC)cc4)cc3C(=O)N([C@H](C)CO)C[C@@H]2C)cc1 | inactive
23 | C[C@H](CO)N1C[C@H](C)[C@H](CN(C)Cc2ccc(C(=O)O)cc2)Oc2ccc(NS(C)(=O)=O)cc2CC1=O | inactive
24 | Cc1noc(C)c1NC(=O)N(C)C[C@H]1Oc2ccc(NS(=O)(=O)c3cccs3)cc2CC(=O)N([C@@H](C)CO)C[C@H]1C | inactive
25 | COc1ccc(C#Cc2ccc3c(c2)[C@@]2(C(=O)N3C(=O)N[C@@H](C)c3ccccc3)[C@H](c3ccc(OCCO)cc3)N3[C@H](c4ccccc4)[C@H](c4ccccc4)OC(=O)[C@H]3[C@@H]2C(=O)O)cc1 | active
26 | C[C@H]1CN([C@@H](C)CO)C(=O)Cc2cc(NC(=O)Nc3ccc4c(c3)OCO4)ccc2O[C@H]1CN(C)Cc1ccc(Cl)c(Cl)c1 | active
27 | C[C@@H]1CN([C@H](C)CO)C(=O)Cc2cc(NC(=O)Nc3cccc4ccccc34)ccc2O[C@@H]1CN(C)Cc1ccncc1 | inactive
28 | C[C@@H]1CN([C@@H](C)CO)C(=O)Cc2cc(NC(=O)Cn3cnnn3)ccc2O[C@H]1CN(C)Cc1ccccc1 | inactive
29 | C[C@@H]1CN([C@@H](C)CO)S(=O)(=O)c2ccc(C#CCN(C)C)cc2O[C@@H]1CN(C)C | inactive

Test system: HepG2
Assay: cytotoxicity call (relative viability < 0.9)
Conditions: 10 µM

Row | SMILES | cytotoxicity call
30 | C=CCn1cnc2c1c(=O)[nH]c(=O)n2C | inactive
31 | C[C@@H]1CN([C@@H](C)CO)C(=O)c2cc(N(C)C)ccc2O[C@@H](C)CCCCO[C@@H]1CN(C)C(=O)Nc1ccc(C(F)(F)F)cc1 | active
32 | CO[C@H](CN(C)S(=O)(=O)c1cccc(Cl)c1)[C@H](C)CN([C@H](C)CO)S(=O)(=O)c1cccc(Cl)c1 | inactive
33 | Cc1noc(C)c1NC(=O)Nc1cccc2c1O[C@H](CN(C)Cc1ccc(Cl)c(Cl)c1)[C@@H](C)CN([C@@H](C)CO)C2=O | inactive
34 | CC(C)NC(=O)Nc1ccc2c(c1)C(=O)N([C@H](C)CO)C[C@@H](C)[C@H](CN(C)C(=O)C1CCCCC1)OCCCC[C@H](C)O2 | inactive
35 | Cn1cnc(S(=O)(=O)N2C[C@@H](O)COC[C@H]3O[C@@H](CC(=O)NCc4cc(F)cc(F)c4)CC[C@@H]32)c1 | inactive
36 | C[C@@H]1CN([C@@H](C)CO)C(=O)Cc2cc(NC(=O)Cc3cn(C)c4ccccc34)ccc2O[C@@H]1CN(C)Cc1ccc(C(F)(F)F)cc1 | active
37 | O=C(Nc1ccccc1)C1=C[C@@H](c2ccc3c(c2)Cc2ccccc2-3)C[C@@H](OCc2ccc(CO)cc2)O1 | inactive
38 | CN(C)CC(=O)N[C@H]1C=C[C@H](CC(=O)O)O[C@@H]1CO | inactive
39 | Cc1ccc(S(=O)(=O)N(C)C[C@H]2Oc3c(NC(=O)C4CCOCC4)cccc3C(=O)N([C@H](C)CO)C[C@H]2C)cc1 | inactive
40 | Cn1cnc(S(=O)(=O)N2C[C@H](O)COC[C@@H]3O[C@@H](CC(=O)NCc4ccc(F)cc4)CC[C@H]32)c1 | inactive
41 | CO[C@@H]1CN(C)C(=O)c2cc(NC(=O)Nc3cccc(F)c3)ccc2OC[C@H](C)N(C(=O)Nc2c(C)noc2C)C[C@@H]1C | inactive
42 | CCn1cc(C(=O)N2CCN(C)CC2)c(=O)c2cc(S(=O)(=O)N(C)C)ccc21 | inactive
43 | COc1ccc(CN(C)C[C@@H]2OCCCC[C@H](C)Oc3ccc(NS(=O)(=O)c4ccccc4)cc3C(=O)N([C@H](C)CO)C[C@@H]2C)cc1 | inactive
44 | O=C1c2ccncc2C(=O)N1CO | inactive
45 | CC(=O)OCCNC(=O)c1cccnc1 | inactive
46 | Cc1noc(C)c1S(=O)(=O)N(C)C[C@H]1OCCCC[C@@H](C)Oc2ccc(NC(=O)Nc3ccc(F)cc3)cc2C(=O)N([C@H](C)CO)C[C@@H]1C | inactive
47 | CN(C)[C@H]1CS(=O)(=O)C[C@@H]1N(C)C | inactive
48 | O=C(C[C@@H]1CC[C@@H](NS(=O)(=O)c2ccccc2)[C@@H](CO)O1)NCc1ccncn1 | inactive
49 | Nc1nc(Cl)nc2c1ncn2[C@H]1C[C@H](O)[C@@H](CO)O1 | inactive

Row | SMILES | cytotoxicity call
50 | C[C@@H](Oc1cc(-n2cnc3ccc(CN4CCN(C)CC4)cc32)sc1C(N)=O)c1ccccc1C(F)(F)F | active
51 | O/N=C/c1c(Cl)cccc1Cl | inactive
52 | O=C(O)CCC(=O)Nc1ccc(S(=O)(=O)Nc2nccs2)cc1 | inactive
53 | COc1ccc(S(=O)(=O)N(C)C[C@@H]2Oc3c(NS(=O)(=O)c4cn(C)cn4)cccc3C(=O)N([C@@H](C)CO)C[C@@H]2C)cc1 | inactive
54 | CCS(=O)(=O)Nc1ccc2c(c1)C(=O)N(C)C[C@H](OC)[C@H](C)CN(CCC(F)(F)F)[C@H](C)CO2 | inactive
55 | CCC1(C)OC(=O)N(C)C1=O (centres undefined) | inactive
56 | CCCCn1c(N)c(N(CC)C(=O)Cc2ccc(S(=O)(=O)N3CCOCC3)s2)c(=O)[nH]c1=O | inactive
57 | CC(C)NC(=O)Nc1ccc2c(c1)C(=O)N([C@@H](C)CO)C[C@H](C)[C@H](CN(C)C(=O)C1CCCCC1)OCCCC[C@@H](C)O2 | inactive
58 | C[C@@H]1CN([C@@H](C)CO)C(=O)c2cccc(NC(=O)Nc3ccc(C(F)(F)F)cc3)c2O[C@@H]1CN(C)S(C)(=O)=O | inactive
59 | O=C(Nc1cccc2cccnc12)[C@@H]1[C@H](c2cccc(Br)c2)CC(=O)N1C(=O)OCc1ccccc1 | inactive
60 | C[C@H](CO)N1C[C@H](C)[C@H](CN(C)Cc2ccc(Cl)c(Cl)c2)Oc2ccc(NC(=O)Nc3ccccc3)cc2CC1=O | active
61 | C[C@@H]1CCCCO[C@@H](CN(C)S(C)(=O)=O)[C@H](C)CN([C@H](C)CO)C(=O)c2cc(NS(=O)(=O)c3cn(C)cn3)ccc2O1 | inactive
62 | COc1ccc(CN(C)C[C@H]2OCCCC[C@H](C)Oc3ccc(NS(=O)(=O)c4ccc(OC)cc4)cc3C(=O)N([C@H](C)CO)C[C@@H]2C)cc1 | inactive
63 | C[C@H](CO)N1C[C@H](C)[C@H](CN(C)Cc2ccc(C(=O)O)cc2)Oc2ccc(NS(C)(=O)=O)cc2CC1=O | inactive
64 | Cc1noc(C)c1NC(=O)N(C)C[C@H]1Oc2ccc(NS(=O)(=O)c3cccs3)cc2CC(=O)N([C@@H](C)CO)C[C@H]1C | inactive
65 | COc1ccc(C#Cc2ccc3c(c2)[C@@]2(C(=O)N3C(=O)N[C@@H](C)c3ccccc3)[C@H](c3ccc(OCCO)cc3)N3[C@H](c4ccccc4)[C@H](c4ccccc4)OC(=O)[C@H]3[C@@H]2C(=O)O)cc1 | active
66 | C[C@H]1CN([C@@H](C)CO)C(=O)Cc2cc(NC(=O)Nc3ccc4c(c3)OCO4)ccc2O[C@H]1CN(C)Cc1ccc(Cl)c(Cl)c1 | active
67 | C[C@@H]1CN([C@H](C)CO)C(=O)Cc2cc(NC(=O)Nc3cccc4ccccc34)ccc2O[C@@H]1CN(C)Cc1ccncc1 | active
68 | C[C@@H]1CN([C@@H](C)CO)C(=O)Cc2cc(NC(=O)Cn3cnnn3)ccc2O[C@H]1CN(C)Cc1ccccc1 | inactive
69 | C[C@@H]1CN([C@@H](C)CO)S(=O)(=O)c2ccc(C#CCN(C)C)cc2O[C@@H]1CN(C)C | inactive
